Test [1] deals with T1, NPR2, yeast two-hybrid fusion (Arabidopsis thaliana) (UniProt Q9SZI3).
T1 sequence: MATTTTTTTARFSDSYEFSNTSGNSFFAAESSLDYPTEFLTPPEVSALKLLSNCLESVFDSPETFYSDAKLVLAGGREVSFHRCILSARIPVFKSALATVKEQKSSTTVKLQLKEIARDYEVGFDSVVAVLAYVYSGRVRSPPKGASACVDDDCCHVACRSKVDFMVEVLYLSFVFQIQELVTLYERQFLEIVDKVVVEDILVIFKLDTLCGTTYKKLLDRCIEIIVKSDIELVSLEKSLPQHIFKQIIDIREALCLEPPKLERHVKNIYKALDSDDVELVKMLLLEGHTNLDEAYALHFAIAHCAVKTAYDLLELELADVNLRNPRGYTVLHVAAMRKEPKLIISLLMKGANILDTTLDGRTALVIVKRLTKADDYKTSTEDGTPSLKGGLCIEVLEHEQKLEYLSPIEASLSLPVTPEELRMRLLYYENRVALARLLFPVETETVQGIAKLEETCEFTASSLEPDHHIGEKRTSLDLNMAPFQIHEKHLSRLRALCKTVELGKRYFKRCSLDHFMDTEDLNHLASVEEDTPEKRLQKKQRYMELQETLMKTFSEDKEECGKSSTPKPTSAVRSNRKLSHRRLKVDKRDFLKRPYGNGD
Briefly: two-hybrid; yeast with one cDNA in pDEST22 and one in pDEST32; growth on minimal media -His with 5 mM 3AT and 100 μM SA or 100 μM HBA (Fig 4a).

The target in test [2] is T2, NPR1, BiFC fusion (Arabidopsis thaliana), P93002.
T2 chain: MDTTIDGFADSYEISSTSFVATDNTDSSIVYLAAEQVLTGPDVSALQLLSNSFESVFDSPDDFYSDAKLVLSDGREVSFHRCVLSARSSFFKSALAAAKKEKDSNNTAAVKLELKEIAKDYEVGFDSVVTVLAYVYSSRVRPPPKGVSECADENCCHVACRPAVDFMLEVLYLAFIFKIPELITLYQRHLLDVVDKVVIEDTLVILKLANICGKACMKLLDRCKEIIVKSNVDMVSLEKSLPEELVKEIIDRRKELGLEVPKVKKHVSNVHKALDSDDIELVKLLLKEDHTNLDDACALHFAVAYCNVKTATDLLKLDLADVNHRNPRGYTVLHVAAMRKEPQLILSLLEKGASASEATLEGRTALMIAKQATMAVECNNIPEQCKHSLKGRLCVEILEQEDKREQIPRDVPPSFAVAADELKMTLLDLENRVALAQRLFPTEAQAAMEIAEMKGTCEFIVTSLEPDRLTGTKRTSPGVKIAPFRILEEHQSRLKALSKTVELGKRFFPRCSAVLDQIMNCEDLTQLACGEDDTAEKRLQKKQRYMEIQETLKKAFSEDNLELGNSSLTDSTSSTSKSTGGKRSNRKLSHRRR
Briefly: split reporter; BiFC in N. benthamiana leaves, agroinfiltrated; 1 mM SA one day before visualization; first protein fused with the N-terminal part of GFP, second with the C-terminal; confocal microscopy. The note with it: remark: other sources report otherwise.

Test [3] concerns the target T1, NPR2, yeast two-hybrid fusion (Arabidopsis thaliana). Description: two-hybrid; yeast with one cDNA in pDEST22 and one in pDEST32; growth on -His with 100 μM SA or 100 μM HBA, without 3AT (Fig 4b).
Test [4] addresses NPR1, BiFC fusion (Arabidopsis thaliana) (UniProt P93002). Briefly: split reporter; BiFC in N. benthamiana leaves, agroinfiltrated; 1 mM SA one day before visualization; first protein fused with the N-terminal part of GFP, second with the C-terminal; confocal microscopy.
In test [5] the target is T3, BOP2, BiFC fusion (Arabidopsis thaliana) (UniProt Q9ZVC2).
T3 sequence: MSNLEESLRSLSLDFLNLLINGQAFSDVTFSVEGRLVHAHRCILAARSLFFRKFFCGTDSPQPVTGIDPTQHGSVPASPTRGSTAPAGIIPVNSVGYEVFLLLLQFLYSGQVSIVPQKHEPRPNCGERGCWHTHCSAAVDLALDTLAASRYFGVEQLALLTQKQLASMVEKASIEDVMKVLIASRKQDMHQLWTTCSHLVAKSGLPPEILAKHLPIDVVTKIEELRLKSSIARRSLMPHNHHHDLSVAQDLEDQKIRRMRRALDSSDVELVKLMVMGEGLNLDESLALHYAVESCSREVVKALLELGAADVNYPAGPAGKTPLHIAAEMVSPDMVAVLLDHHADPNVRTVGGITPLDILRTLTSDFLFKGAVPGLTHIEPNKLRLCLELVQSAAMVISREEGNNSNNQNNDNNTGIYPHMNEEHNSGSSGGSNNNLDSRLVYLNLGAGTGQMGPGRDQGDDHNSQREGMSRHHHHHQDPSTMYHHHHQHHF
The test is described as above.

The target of test [6] is T4, BOP1, BiFC fusion (Arabidopsis thaliana) (UniProt Q9M1I7).
T4 sequence: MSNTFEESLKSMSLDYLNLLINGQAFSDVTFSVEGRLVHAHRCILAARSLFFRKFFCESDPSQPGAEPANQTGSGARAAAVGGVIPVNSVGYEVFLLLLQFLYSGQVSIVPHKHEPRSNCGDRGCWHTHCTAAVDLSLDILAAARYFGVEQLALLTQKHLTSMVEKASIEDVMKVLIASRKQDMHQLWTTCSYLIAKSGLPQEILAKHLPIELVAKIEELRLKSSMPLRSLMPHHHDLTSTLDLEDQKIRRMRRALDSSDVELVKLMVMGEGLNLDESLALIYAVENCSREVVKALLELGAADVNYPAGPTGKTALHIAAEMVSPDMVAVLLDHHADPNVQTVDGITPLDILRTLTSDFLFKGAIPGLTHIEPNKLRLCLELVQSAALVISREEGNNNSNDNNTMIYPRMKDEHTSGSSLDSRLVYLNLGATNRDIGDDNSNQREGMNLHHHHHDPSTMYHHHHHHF
The test is described as above.

Test [7] deals with T5, NPR2, BiFC fusion (Arabidopsis thaliana) (UniProt Q9SZI3).
T5 sequence: T1 sequence
Described as above.

Substrate in test [8]: NON EXPRESSER OF PATHOGENESIS RELATED 1 (NPR1), yeast two-hybrid fusion (Arabidopsis thaliana) (UniProt P93002)
Description: two-hybrid; NPR1 paralogs against each other (Fig 5); growth on -His, 5 mM or less 3AT when indicated; result told for plates with and without SA alike, or without naming the plate.

For test [9], the target named is GFP-NPR2 (Arabidopsis thaliana) (UniProt Q9SZI3). Briefly: pull-down; GFP-NPR2 and MBP-fused paralogs transiently expressed in N. benthamiana; extracts pulled down with amylose resin; GFP-NPR2 detected in the eluted fraction by immunoblot (the paper's 'co-sedimentation'). In general terms: In western blotting, separated proteins are transferred to a membrane and probed.

Test [10] concerns the target MBP-NPR1 (Arabidopsis thaliana) (UniProt P93002). Described as above.

Results are given in words; binding and its absence hold for the method and conditions named. For some of these results: In cells and extracts the contact can be indirect. Some entries that bind do so weakly or less than the wild type. Sequences can lack the tags named with a protein.

B1: NIMIN1 (NIM1-… 1), yeast two-hybrid fusion (protein, UniProt Q9FNZ5 1-142)
chain: MYPKQFSLYNYSLETMSKDENVESKETIRVDKRVREDEEEEEEKKIDTFFKLIKHYQEARKRRREELAENSGVVRRKSNGGERSGIVVPAFQPEDFSQCRTGLKPPLMFVSDHKEENTKVEQEEDQTEERNEDKALDLNLAL
For B1, the binding result in test [1] was “no binding”.

B2: NPR1, BiFC fusion, P93002 1-593 (protein)
chain: T2 chain
As to B2, the binding result in test [2] is reported as “binds”.

B3: β carbonic anhydrase 2 (CA2), yeast two-hybrid fusion (protein, UniProt P42737 1-331)
chain: MVPFWTTVSRNGSSDSETTLQSASKATKQYKYPSLRPSHRLSLLFLFPFHLSANGACFRCTCFSHFKLELRRMGNESYEDAIEALKKLLIEKDDLKDVAAAKVKKITAELQAASSSDSKSFDPVERIKEGFVTFKKEKYETNPALYGELAKGQSPKYMVFACSDSRVCPSHVLDFHPGDAFVVRNIANMVPPFDKVKYAGVGAAIEYAVLHLKVENIVVIGHSACGGIKGLMSFPLDGNNSTDFIEDWVKICLPAKSKVLAESESSAFEDQCGRCEREAVNVSLANLLTYPFVREGVVKGTLALKGGYYDFVNGSFELWELQFGISPVHSI
On to B3, for which the binding entry in [3] is given as “no binding”.

B4: NPR2, BiFC fusion (protein, UniProt Q9SZI3 1-600)
chain: T1 sequence
As for B4, the binding entry in test [4], in test [5], in test [6] and in [7] was “binds” each time.

B5: NPR2, yeast two-hybrid fusion (protein, UniProt Q9SZI3 1-600)
chain: T1 sequence
B5: the binding result in test [8] is listed as “binds”.

B6: GFP-NPR2 (protein, UniProt Q9SZI3 1-600)
chain: T1 sequence
As for B6, the binding entry in test [9] and in [10] was “binds” each time.

The values are drawn from paper PMC6310259.
